Molecular target: GB1a/2 receptors (Homo sapiens, UniProt O75899+Q9UBS5)
Experiment: SRE-luciferase accumulation assay (Gαqi/PLC) in HEK293T-Gαqi cells
Settings: GB1a/2 + APP, different curve for each data set; for EC50 of GABA in presence of peptide: 110 points

GB1a/2 receptors, sequence (Q9UBS5 15-961 limits assumed): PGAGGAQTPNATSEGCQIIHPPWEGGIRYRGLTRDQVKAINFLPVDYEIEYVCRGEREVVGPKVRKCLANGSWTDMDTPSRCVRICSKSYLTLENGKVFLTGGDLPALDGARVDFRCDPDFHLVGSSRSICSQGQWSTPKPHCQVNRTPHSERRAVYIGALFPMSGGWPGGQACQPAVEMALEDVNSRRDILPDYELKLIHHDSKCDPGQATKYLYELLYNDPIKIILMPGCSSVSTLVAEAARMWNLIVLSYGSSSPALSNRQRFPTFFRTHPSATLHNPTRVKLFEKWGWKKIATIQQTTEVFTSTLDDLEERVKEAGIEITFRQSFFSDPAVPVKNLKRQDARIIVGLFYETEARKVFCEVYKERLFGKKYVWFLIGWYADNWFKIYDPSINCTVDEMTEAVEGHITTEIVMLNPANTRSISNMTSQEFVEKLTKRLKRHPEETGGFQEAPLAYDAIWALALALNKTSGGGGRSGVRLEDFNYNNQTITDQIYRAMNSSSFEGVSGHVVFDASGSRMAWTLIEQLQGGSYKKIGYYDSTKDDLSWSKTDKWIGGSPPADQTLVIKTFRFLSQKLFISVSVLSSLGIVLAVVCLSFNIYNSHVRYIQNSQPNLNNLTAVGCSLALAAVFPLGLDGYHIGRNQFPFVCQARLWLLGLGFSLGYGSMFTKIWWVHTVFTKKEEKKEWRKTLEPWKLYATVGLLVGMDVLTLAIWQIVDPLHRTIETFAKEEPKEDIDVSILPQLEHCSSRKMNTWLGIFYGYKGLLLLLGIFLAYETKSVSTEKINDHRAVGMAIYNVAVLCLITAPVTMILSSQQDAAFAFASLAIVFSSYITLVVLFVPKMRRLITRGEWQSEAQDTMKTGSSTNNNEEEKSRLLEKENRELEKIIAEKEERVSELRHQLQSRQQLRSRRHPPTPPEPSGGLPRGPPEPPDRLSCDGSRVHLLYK
GB1a/2 receptors, sequence (O75899 42-941 partner): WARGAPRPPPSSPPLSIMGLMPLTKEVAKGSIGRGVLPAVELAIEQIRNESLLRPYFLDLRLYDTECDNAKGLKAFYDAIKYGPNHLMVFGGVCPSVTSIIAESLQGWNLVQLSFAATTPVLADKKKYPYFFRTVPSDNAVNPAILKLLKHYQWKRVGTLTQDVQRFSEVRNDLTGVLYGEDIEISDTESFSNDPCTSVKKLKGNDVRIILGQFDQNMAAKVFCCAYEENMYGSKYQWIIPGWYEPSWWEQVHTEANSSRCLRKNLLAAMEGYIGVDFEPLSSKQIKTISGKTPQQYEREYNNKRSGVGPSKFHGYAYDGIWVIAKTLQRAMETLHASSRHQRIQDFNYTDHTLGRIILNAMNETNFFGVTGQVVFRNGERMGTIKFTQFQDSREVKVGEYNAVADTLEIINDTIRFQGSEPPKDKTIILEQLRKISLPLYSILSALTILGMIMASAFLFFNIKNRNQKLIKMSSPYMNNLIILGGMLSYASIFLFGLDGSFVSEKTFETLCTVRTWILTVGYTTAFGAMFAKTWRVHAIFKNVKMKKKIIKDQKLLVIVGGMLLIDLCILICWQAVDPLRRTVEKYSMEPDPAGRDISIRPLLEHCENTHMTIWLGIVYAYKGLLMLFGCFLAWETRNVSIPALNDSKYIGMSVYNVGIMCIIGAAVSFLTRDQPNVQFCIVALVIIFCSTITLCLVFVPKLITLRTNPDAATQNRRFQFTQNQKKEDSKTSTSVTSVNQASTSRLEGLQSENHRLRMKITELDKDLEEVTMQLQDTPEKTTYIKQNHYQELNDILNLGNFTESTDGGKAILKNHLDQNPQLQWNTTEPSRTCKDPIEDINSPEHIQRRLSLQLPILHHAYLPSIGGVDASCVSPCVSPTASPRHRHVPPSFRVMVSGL

Substance: Ac-DDSDVWWGGADTDYADG-NH2 [APP17]
- HillSlope of GABA dose-response curve in presence of peptide (1μM peptide): 1.007
- Span of GABA dose-response curve in presence of peptide (1μM peptide): 0.7032
- EC50 of GABA in presence of peptide (1μM peptide): 313.3 nM
- HillSlope of GABA dose-response curve in presence of peptide (10μM peptide): 0.993
- Span of GABA dose-response curve in presence of peptide (10μM peptide): 0.6682
- EC50 of GABA in presence of peptide (10μM peptide): 341.3 nM
